Test results from PubChem BioAssay AID493208 (National Center for Advancing Translational Sciences (NCATS), 2011).
The whole screen tested about 44,000 compounds, of which about 340 (0.77%) were called active. Another 5% or so got no clear call; they are omitted. Calls come from the whole dose curve; as a rule, active = well fitted inhibition curve with a large enough effect; inconclusive = small, poorly fitted or top-dose-only effect; inactive = flat fitted curve, though single readings scatter. The list shows a part of the results.

experiment: Acumen qHTS Assay for Inhibitors of the mTORC1 Signaling Pathway in MEF (Tsc2-/-, p53-/-) Cells: Sytravon; details: phospho-rpS6 immunofluorescence/PI, 24 h; series mostly up to 38.3 µM; activity change, negative = inhibition: at the top concentration;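 note: plate controls were DMSO for no effect and rapamycin for full effect; nearly all actives have a fitted effect of over 50% in size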
How it was run: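 Plate MEFs (Tsc2-/-, p53-/-, empty vector) in DMEM/10% FBS; after 24 h add compound, incubate 24 h at 37 degree Celsius; fix in PFA/TX-100, block, stain phospho-rpS6 and 10 uM PI; scan at 488 nm; report % positive cells.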

SMILES | activity change, negative = inhibition
CCc1ccccc1NC(=O)Cn1c(-c2nonc2N)nc2ccccc21 | inactive: 4.12%
O=C(NCCc1csc(-c2ccc(Cl)cc2)n1)c1cccs1 | inactive: 2.83%
COC(=O)c1c(NC(=O)CCCOc2ccc(C(C)(C)C)cc2)sc2c1CCC(C)C2 (stereo not drawn) | inactive: -0.895%
COc1ccc(NC(=O)/C(C#N)=C/c2ccc(OCc3cc(=O)n4nc(C)sc4n3)cc2)cc1 | inactive: -9.71%
CC1CCN(C(=O)CSc2nnc(-c3ccccc3Cl)o2)CC1 | inactive: -2.47%
CCN(C(=O)Cn1nc(Cc2cccnc2)c2ccccc2c1=O)c1ccccc1F | inactive: 0.534%
O=S(=O)(Nc1ccc2oc3c(c2c1)CCCC3)c1cc(Cl)ccc1Cl | inactive: 1.38%
Cc1ccc(S(=O)(=O)NCCc2cn3c(C)csc3n2)cc1 | inactive: 0.8%
Cc1cccc(NC(=O)C2CCN(c3nnc(-n4c(C)ccc4C)s3)CC2)c1C | inactive: -14.7%
COc1ccc(-c2nnc(C3CCN(C(=O)c4ccccc4F)CC3)o2)cc1 | inactive: 8.71%
Cc1ccc2nc(-c3cc(NC(=O)c4ccc5c(c4)OCCO5)ccc3Cl)oc2c1 | inactive: -22.6%
COc1ccc(NC(=O)CCNS(=O)(=O)c2cccc3nsnc23)cc1 | inactive: 0.26%
COc1ccc(C2Sc3ccccc3NC3=C2C(=O)c2ccccc23)c(OC)c1OC (stereo not drawn) | inactive: -4.55%
COc1ccc(-c2onc(C)c2C)cc1S(=O)(=O)N1c2ccccc2CC1C (stereo not drawn) | inactive: -5.62%
Cc1ccc(N2CC(c3nc4ccccc4n3CCC3CCCCC3)CC2=O)cc1 (stereo not drawn) | inactive: -0.55%
CCOc1ccc(C(CC(=O)O)N2Cc3ccccc3C2=O)cc1OC (stereo not drawn) | inactive: -7.92%
COc1ccc(C2c3c(oc4ccc(F)cc4c3=O)C(=O)N2Cc2ccc3c(c2)OCO3)cc1 (stereo not drawn) | inactive: -2.25%
N#C/C(=C\c1ccccc1)c1nc(-c2cc3cc(Br)ccc3oc2=O)cs1 | inactive: -2.48%
CCc1ccc(CNCc2c(C(=O)O)n(Cc3cccc(F)c3)c3cc(OC)ccc23)cc1 | inactive: 0.761%
COC(=O)c1ccccc1NC(=O)NCCc1c(C)nn(C)c1C | inactive: 0%
Cc1cccc(N(C)C(=O)c2cc(S(=O)(=O)N3CCCC3)cn2C)c1 | inactive: -1.24%
O=C(Nc1ccccc1Br)C1CCCN(S(=O)(=O)c2cccc3nsnc23)C1 (stereo not drawn) | inactive: -2.33%
COc1cccc(N2CCN(S(=O)(=O)c3ccc4[nH]c5c(c4c3)CCCC5)CC2)c1 | inactive: -11.2%
O=C1CC(c2ccccc2)Cc2[nH]c(=O)c(C(=O)Nc3cccc(F)c3)cc21 (stereo not drawn) | inactive: 21.6%
O=C(NCCS(=O)(=O)N1CCN(c2ccccc2)CC1)C(c1ccccc1)c1ccccc1 | inactive: -0.762%
Cc1cccc(NC(=O)c2c(NC(=O)C(F)(F)F)sc3c2CCCCC3)c1 | inactive: -12.7%
CCOC(=O)c1cccc(Nc2c3c(nc4ccccc24)CCC3)c1 | inactive: -27.7%
O=C(CSc1nc2c([nH]c3ccccc32)c(=O)n1-c1ccc(F)cc1)N1CCCCC1 | inactive: -1.93%
